# Measurements as given in PubChem BioAssay AID588342 (National Center for Advancing Translational Sciences (NCATS), 2011).
# Hit rate of the full screen: of about 360,000 compounds, about 25,000 (6.9%) were called active. Inconclusive means that the source gave no clear call. Such entries were picked first, then a sample of the others. Calls come from the whole dose curve; as a rule, active = well fitted inhibition curve with a large enough effect; inconclusive = small, poorly fitted or top-dose-only effect; inactive = flat fitted curve, though single readings scatter. A potency beside an inconclusive call is a rough fit, not a confirmed value.
# Target: Luciferin 4-monooxygenase (Photinus pyralis) (UniProt P08659)
# Assay: qHTS profiling assay for firefly luciferase inhibitor/activator using purifed enzyme and Km concentrations of substrates (counterscreen for miR-21 project); note: nearly all actives have a fitted effect of over 55% in size
# Details: purified FLuc, luminescence inhibition; series mostly up to 57.5 µM
# Outline: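 Purified P. pyralis luciferase, 10 nM final, with Km-level 10 uM D-luciferin and 10 uM ATP in 50 mM Tris acetate pH 7.5, 10 mM Mg acetate, 0.01% Tween-20, 0.05% BSA; 6-point qHTS titration about 60 µM downward; luminescence read.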
# Potency is the fitted concentration of half-maximal effect; tags give direction and shape of the fitted curve.
# UniProt P08659, sequence (P08659 whole entry, looked up): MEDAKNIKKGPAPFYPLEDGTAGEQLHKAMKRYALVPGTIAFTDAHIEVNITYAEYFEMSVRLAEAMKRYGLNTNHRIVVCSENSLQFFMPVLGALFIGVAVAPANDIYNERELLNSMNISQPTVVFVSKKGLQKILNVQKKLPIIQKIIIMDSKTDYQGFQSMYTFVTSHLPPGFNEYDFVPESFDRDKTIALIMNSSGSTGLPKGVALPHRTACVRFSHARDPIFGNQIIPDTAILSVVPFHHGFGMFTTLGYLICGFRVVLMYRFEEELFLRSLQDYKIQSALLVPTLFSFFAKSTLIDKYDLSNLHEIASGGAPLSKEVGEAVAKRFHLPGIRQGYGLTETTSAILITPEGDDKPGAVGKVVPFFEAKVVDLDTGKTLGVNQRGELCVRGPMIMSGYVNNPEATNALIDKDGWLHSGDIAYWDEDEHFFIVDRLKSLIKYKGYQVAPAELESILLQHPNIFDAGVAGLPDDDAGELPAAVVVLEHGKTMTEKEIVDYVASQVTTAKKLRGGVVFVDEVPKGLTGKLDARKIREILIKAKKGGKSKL
row,Compound,Potency
1,CCOC(=O)c1c(S(=O)(=O)N2CCC(C(=O)Nc3ccccc3OC)CC2)c(C)n(CC)c1C,inactive
2,COc1ccc2c(Cl)c(C(=O)OCC(=O)c3ccc4c(c3)NC(=O)CO4)sc2c1Cl,inactive
3,CCc1ccc2oc(C(=O)N3CCN(c4ccccc4OC)CC3)cc(=O)c2c1,"inconclusive: 30.1 µM [inhibitor, single point]"
4,c1cncc(-c2noc(-c3ccco3)n2)c1,"inconclusive: 19 µM [inhibitor, partial curve]"
5,CCCCCCSC1=C(C#N)C(=O)NC2(CCCCC2)S1,active: 23.9 µM
6,COc1ccc(-n2nc(C(=O)N(C)c3cccc(C(F)(F)F)c3)c3c4ccccc4n(C)c3c2=O)cc1,inactive
7,Oc1cccc(/C=N/Nc2cc(N3CCOCC3)nc(N3CCOCC3)n2)c1,"inconclusive: 23.9 µM [inhibitor, single point]"
8,Cc1nc2nc(NC(=O)c3cccc(Cl)c3)[nH]n2c(=O)c1Cc1ccccc1,"inconclusive: 12 µM [inhibitor, partial curve]"
9,CCCNC(=O)C1CCC(Cn2c(=O)c3sccc3n(Cc3cccc(OC)c3)c2=O)CC1 (stereo unspecified),inactive
10,CCC(C(=O)N1CCN(c2cccc(C)c2C)CC1)n1nc(C)c2sc3ccccc3c2c1=O (stereo unspecified),"inconclusive: 8.49 µM [inhibitor, partial curve, poor fit]"
11,O=C(CSc1ncccc1-c1nc2ccccc2[nH]1)NC1CC1,"inconclusive: 23.9 µM [inhibitor, single point]"
12,CCn1c(SCC(=O)c2cc(C)n(-c3ccc(C(=O)OC)cc3)c2C)nnc1-c1cccnc1,active: 15.1 µM
13,COc1ccc(C)cc1NC(=O)CN(Cc1nnc(-c2ccc(Cl)cc2)o1)C1CCCC1,"inconclusive: 23.9 µM [inhibitor, partial curve]"
14,CCn1c(CN(C)c2ccccc2)nc2ccccc21,"inconclusive: 26.9 µM [inhibitor, partial curve, poor fit]"
15,O=C(Nc1ccc2oc(=O)ccc2c1)c1ccco1,"inconclusive: 23.9 µM [inhibitor, partial curve]"
16,COc1cccc(NC(=O)CCc2ccccc2)c1,"inconclusive: 42.6 µM [inhibitor, partial curve, poor fit]"
17,COc1ccc(N2CCN(C(CNC(=O)OCc3ccccc3)c3ccco3)CC2)cc1 (stereo unspecified),"inconclusive: 21.3 µM [inhibitor, partial curve, poor fit]"
18,COc1cc2nc(Cl)nc(N3CCN(C)CC3)c2cc1OC,inactive
19,CN(C(=S)NC(=O)c1ccc(Cl)cc1)C1CCCCC1,"inconclusive: 23.9 µM [inhibitor, partial curve]"
20,O=C(COC(=O)c1ccc(O)cc1O)Nc1ccc2ccccc2c1,inactive
21,CSc1n[nH]c(-c2sccc2OCc2ccc(C)cc2)n1,"inconclusive: 33.8 µM [inhibitor, partial curve, poor fit]"
22,O=C(CSc1ncccn1)NC(=O)Nc1ccc2c(c1)OCCO2,active: 23.9 µM
23,COc1cc(/C=N/NC(=O)[C@H](Cc2c[nH]c3ccccc23)NC(=O)OCC(C)C)cc([N+](=O)[O-])c1O,"inconclusive: 30.1 µM [inhibitor, partial curve, poor fit]"
24,C#CCOCCOCCOCCNc1nc(N2CCN(C(=O)CCCCCCCCCCNC(=O)[C@H](CCCCN)n3cc(C[C@@H](C)CC)nn3)CC2)nc(N2CCN(C(=O)CCCCCCCCCCNC(=O)[C@@H]([C@H](C)O)n3cc(C)nn3)CC2)n1,inactive

row,Compound,Potency
1,COc1ccc(CCCc2nnc(SCC(=O)N/N=C\c3ccc(O)c(OC)c3)o2)cc1C,"inconclusive: 30.1 µM [inhibitor, single point]"
2,Fc1ccc(NCc2cccn2-c2nnc(N3CCOCC3)s2)cc1,inactive
3,CC1CCN(c2ncnc3c2cnn3-c2ccc(F)cc2)CC1,active: 3.01 µM
4,Cc1ccsc1C(=O)N/N=C/C=C/c1ccccc1[N+](=O)[O-],"inconclusive: 16.9 µM [inhibitor, partial curve]"
5,COc1ccc(C(=O)CN2CCN(S(=O)(=O)c3ccc(C(C)C)cc3)CC2)cc1,inactive
6,Cc1cccc(C(=O)NNC(=O)c2ccc(NC(=O)C(C)(C)C)cc2)c1,"inconclusive: 26.9 µM [inhibitor, single point]"
7,CS(=O)(=O)c1nc(S(=O)(=O)c2ccc(Cl)cc2)c(NCCCn2ccnc2)s1,inactive
8,Cc1nn(-c2ccccc2C(=O)O)c(=O)c2ccccc12,inactive
9,CCNC(=S)Nc1cc2oc3ccccc3c2cc1OC,"inconclusive: 21.3 µM [inhibitor, partial curve, poor fit]"
10,CC(C)(C)n1ncc2c(=O)n(CC(=O)NCc3ccco3)cnc21,"inconclusive: 37.9 µM [inhibitor, single point]"
11,Cn1/c(=N/NC(=O)c2cccc(OC(F)F)c2)sc2ccccc21,"inconclusive: 26.9 µM [inhibitor, single point]"
12,CCCC(=O)Nc1cccc(NC(=O)c2ccc3c(c2)OCO3)c1,"inconclusive: 26.9 µM [inhibitor, partial curve]"
13,COc1ccc(C(=O)/C=C2\Sc3ccccc3N2C)cc1,active: 1.2 µM
14,Cc1ccc(-c2nc3nc(C)cc(N4CCN(c5cc(Cl)ccc5C)CC4)n3n2)cc1,"inconclusive: 16.9 µM [inhibitor, partial curve, poor fit]"
15,COc1ccccc1CNc1ccc2c(c1)CCC2,"inconclusive: 33.8 µM [inhibitor, single point]"
16,Cc1ccc(NC(=O)NCCN2C(=O)C3C4C=CC(C4)C3C2=O)cc1 (stereo unspecified),active: 16.9 µM
17,O=C(O)c1ccc(Sc2nnc3ccccn23)c([N+](=O)[O-])c1,inactive
18,CCCCN1C(N)=NC[C@H]1Cc1ccc(O)cc1,inactive
19,O=C(N/N=C/c1c[nH]c2ccccc12)c1cccc([N+](=O)[O-])c1,"inconclusive: 23.9 µM [inhibitor, single point]"
20,Cc1nc2cc3ccccc3cc2n1C,"inconclusive: 21.3 µM [inhibitor, single point]"
21,COc1ccc(OC)c(/C=N/NC(=O)c2csc3ccccc23)c1,"inconclusive: 23.9 µM [inhibitor, partial curve, poor fit]"
22,Cc1cc(OC(C)C(=O)Nc2ccccc2C(=O)N2CCCC2)ccc1Cl (stereo unspecified),inactive
23,O=C(CCCCCN1C(=O)c2cccc3cccc(c23)C1=O)NCCCO,"inconclusive: 16.9 µM [inhibitor, partial curve, poor fit]"
24,COC(=O)c1sc(=S)n(-c2cccc(Cl)c2)c1N,"inconclusive: 26.9 µM [inhibitor, partial curve, poor fit]"

row,Compound,Potency
1,COc1cc(OC)c(OC)cc1CN1CCN(C(=O)CC(C)C)CC1,inactive
2,Cc1cc2nc(-c3ccc(SCC(=O)N4CCOCC4)nc3)[nH]c2cc1C,active: 0.675 µM
3,CCc1ccc(NC(=O)c2cccnc2)cc1,"inconclusive: 16.9 µM [inhibitor, partial curve]"
4,Cc1ccc(NC(=O)c2ccc3c(c2)OCCO3)cc1C,active: 0.269 µM
5,O=C(COC(=O)c1cc(-c2cccs2)nc2ccccc12)c1ccccc1,"inconclusive: 8.49 µM [inhibitor, partial curve]"
6,CCOC(=O)C1CCCN(C(=S)Nc2cccc(Cl)c2)C1 (stereo unspecified),inactive
7,O=C(Nc1nc(-c2cccs2)cs1)c1ccc([N+](=O)[O-])o1,"inconclusive: 12 µM [inhibitor, partial curve]"
8,O=C(COC(=O)c1ccccc1C(=O)c1ccccc1)Nc1ccc(SC(F)F)cc1,"inconclusive: 16.9 µM [inhibitor, partial curve]"
9,O=c1oc2ccccc2c2oc3cc(O)c(O)cc3c12,active: 21.3 µM
10,Cc1occc1C(=O)Nc1sc2c(c1C(N)=O)CCC(C(C)(C)C)C2 (stereo unspecified),"inconclusive: 3.38 µM [inhibitor, partial curve]"
11,Cc1ccc2sc(NC(=O)CSc3nc(C)cc(C)c3C#N)nc2c1,active: 3.79 µM
12,O=C(c1ccc2c(c1)N(Cc1ccccc1F)C(=O)c1ccccc1S2(=O)=O)N1CCOCC1,inactive
13,Cn1c(=O)c2c(c3ccccc31)OC(=O)CC2c1ccc(C(F)(F)F)cc1 (stereo unspecified),"inconclusive: 19 µM [inhibitor, single point]"
14,Cc1nc2ccc(NC(=O)C3CCCCC3)cc2s1,"inconclusive: 26.9 µM [inhibitor, single point]"
15,O=C(CCCn1c(=S)[nH]c2cc3c(cc2c1=O)OCO3)NCc1cccc(Cl)c1,inactive
16,c1ccc2c(-c3cn4ccccc4n3)c[nH]c2c1,active: 12 µM
17,N#C/C(=C/c1cn(CC(=O)O)c2ccccc12)c1ccc(F)cc1,"inconclusive: 23.9 µM [inhibitor, single point]"
18,O=C(N/N=C/c1ccc2c(c1)OCO2)c1cc(-c2ccc(F)cc2)nc2ccccc12,active: 5.36 µM
19,O=C(COC(=O)c1ccccc1SCC(=O)N1CCCC1)NCc1ccccc1,"inconclusive: 26.9 µM [inhibitor, partial curve]"
20,O=C(O)CCc1ccc(-c2cccs2)n1NC(=O)c1ccco1,inactive
21,COc1nc(NCCc2ccc(OC)c(OC)c2)nc(Nc2ccccc2)n1,"inconclusive: 26.9 µM [inhibitor, single point]"
22,O=C(NCc1cccnc1)c1ccc(Cl)c(S(=O)(=O)Nc2ccccc2C(=O)NCc2cccnc2)c1,"inconclusive: 37.9 µM [inhibitor, partial curve, poor fit]"
23,COc1cccc(Oc2ccc(C(F)(F)F)cc2N)c1,active: 23.9 µM
